# Assay results reported in PubChem BioAssay AID743255 (National Center for Advancing Translational Sciences (NCATS), 2014).
# About 910 (0.23%) of roughly 390,000 compounds were called active. Another 5% or so got no clear call; they are omitted. The call rests on the fitted dose curve; in most records, active means well fitted inhibition curve with a large enough effect; inconclusive means small, poorly fitted or top-dose-only effect; inactive means no such curve, though single readings can be large or run the other way. The list shows a part of the results, in another mix than the full data.
# Molecular target: Ubiquitin carboxyl-terminal hydrolase 1 (Homo sapiens) (UniProt O94782)
# Test: Inhibitors of USP1/UAF1: Primary Screen; further: nearly all actives have a fitted effect of over 60% in size
# Settings: recombinant USP1/UAF1, Ub-Rhodamine cleavage fluorescence; activity change, negative = inhibition: at 57.1 µM (top of the series)
# How it was run: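 USP1/UAF1 complex (1 nM) preincubated 15 min at room temperature with compound, then Ub-Rho substrate (150 nM final) added. Kinetic fluorescence at 480/540 nm over 6 reads at 60 s intervals; 50 mM HEPES pH 7.8, 0.5 mM EDTA, 0.1 mg/ml BSA, 1 mM TCEP, 0.01% Tween-20.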
# On the % scale 0 is the no-effect control and ±100 the full control effect; potency means the concentration at half of the fitted maximal effect.
# Chain of UniProt O94782 (O94782 whole entry, looked up): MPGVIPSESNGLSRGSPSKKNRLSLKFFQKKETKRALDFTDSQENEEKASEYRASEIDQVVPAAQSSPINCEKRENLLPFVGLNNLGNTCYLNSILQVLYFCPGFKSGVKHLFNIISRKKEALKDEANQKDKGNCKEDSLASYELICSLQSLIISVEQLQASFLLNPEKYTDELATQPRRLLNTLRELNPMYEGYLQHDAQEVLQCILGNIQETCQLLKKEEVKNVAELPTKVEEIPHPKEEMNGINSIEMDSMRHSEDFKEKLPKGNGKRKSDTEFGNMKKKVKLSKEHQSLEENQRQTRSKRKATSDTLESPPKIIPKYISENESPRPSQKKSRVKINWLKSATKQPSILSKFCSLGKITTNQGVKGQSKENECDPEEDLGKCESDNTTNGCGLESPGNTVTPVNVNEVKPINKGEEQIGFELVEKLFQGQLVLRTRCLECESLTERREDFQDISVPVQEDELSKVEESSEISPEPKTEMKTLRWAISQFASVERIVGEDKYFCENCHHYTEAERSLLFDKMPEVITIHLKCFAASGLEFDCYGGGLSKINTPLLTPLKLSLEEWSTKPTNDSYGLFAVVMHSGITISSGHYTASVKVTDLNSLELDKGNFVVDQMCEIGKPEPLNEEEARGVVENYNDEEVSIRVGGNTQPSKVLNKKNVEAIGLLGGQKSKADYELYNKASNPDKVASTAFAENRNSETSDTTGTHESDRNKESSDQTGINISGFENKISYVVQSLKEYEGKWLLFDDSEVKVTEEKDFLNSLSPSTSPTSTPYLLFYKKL
SMILES,"activity change, negative = inhibition",Potency
CCN1C(=O)[C@@H]2[C@@H](c3ccc(-c4ccc(F)cc4)c(OC)c3)N3CCCC[C@@]3(C(=O)OC)[C@@H]2C1=O,inactive: -29.1%,–
Cc1ccc(CS(=O)(=O)c2ncc(Cl)c(C(=O)Nc3nnc(C(C)C)s3)n2)cc1,inactive: -20%,–
C[C@@H]1CN([C@H](C)CO)C(=O)CCCn2nncc2CO[C@H]1CN(C)C(=O)CCC(F)(F)F,inactive: -25.5%,–
COc1ccc(NC(=O)c2ccc3c(SCC(=O)O)c4c(nc3c2)CCCC4)c(OC)c1,inactive: -21.5%,–
CCOC(=O)[C@@H]1[C@H]2COc3ccc(Br)cc3[C@@H]2N2C(=O)N(c3ccc(Br)cc3)C(=O)[C@@]12C,inactive: -27.1%,–
COCCNC(=O)c1ccc2c(c1)N(Cc1cc(C)ccc1C)C(=O)c1ccccc1S2(=O)=O,inactive: 34.5%,–
Cc1cccc(-c2nnn3c2nc(NCCc2ccc(S(N)(=O)=O)cc2)c2ccccc23)c1,inactive: -3.23%,–
OCC[C@H]1C[C@@H](O)[C@H](O)[C@]2(CCCc3ccccc3O2)O1,inactive: -22.8%,–
Cc1ccc(-c2cc(C(=O)NCc3cnn(C)c3)c3cc(Br)ccc3n2)cc1,inactive: -26.3%,–
CC(C)C(NS(=O)(=O)c1ccccc1)C(=O)OCc1cc([N+](=O)[O-])cc2c1OCOC2 (stereo unspecified),inactive: -19.8%,–
CCOC(=O)/C(C#N)=C/c1c(OCC)n(CC)c2ccccc12,inactive: -23.8%,–
C=CCC[C@@H](Cc1ccc(F)cc1)C(=O)OC[C@H](Cc1c[nH]c2ccccc12)NC(=O)[C@H](CC=C)CC(=O)N(CCO)Cc1ccccc1,inactive: -9.64%,–
CCCCCCN1C=CC(=C/C=C(\C#N)C(=O)OCC)C=C1,inactive: 68.5%,–
C=CC[C@@H](CC(=O)N[C@@H](CO)Cc1ccccc1)C(=O)N[C@@H](COC(=O)[C@@H](CC=C)CC(=O)OC(C)(C)C)Cc1c[nH]c2ccccc12,inactive: -26.2%,–
COc1cccc(S(=O)(=O)N(C)C[C@H]2OCc3cnnn3CCCC(=O)N([C@H](C)CO)C[C@@H]2C)c1,inactive: -15.2%,–
Cc1ccc(C)c(OCCn2cc(/C=C(/C#N)C(=O)NCC3CCCO3)c3ccccc32)c1 (stereo unspecified),inactive: -16.9%,–
N#C/C(=C\c1ccc(-c2ccc(F)cc2F)o1)c1nc2ccccc2[nH]1,inactive: 331%,–
C[C@H]1CN([C@@H](C)CO)C(=O)c2cc(Br)cnc2O[C@@H]1CN(C)C(=O)Nc1ccc(C(F)(F)F)cc1,inactive: -12.8%,–
CC[C@H](C)Cc1cn([C@@H](CCCN=C(N)N)C(=O)NCCCCCCCCCCC(=O)N2CCNCC2)nn1,inactive: 21.8%,–
O=c1cc(-c2ccccc2)nc2cc(-c3ccc(F)cc3)[nH]n12,inactive: -7.17%,–
O=C1C=C(Nc2cccnc2)c2ccccc2C1=O,–,active: 14.1 µM

SMILES,"activity change, negative = inhibition",Potency
Cc1ccc(N=Cc2cc(Cc3ccccc3Cl)cc([N+](=O)[O-])c2O)c(O)c1,–,active: 17.8 µM
COC(=O)c1ccc(NC(=O)Cn2nc(C(=O)Nc3ccc(C)cc3)ccc2=O)cc1,inactive: -20.6%,–
CC(C)(C)c1ccc(C2NC(=O)c3n[nH]c(-c4cccs4)c32)cc1 (stereo unspecified),inactive: 31.8%,–
O=C1c2cccc3c(O)ccc(c23)C(=O)N1Cc1ccccc1,–,active: 6.31 µM
C[C@@H]1CN([C@@H](C)CO)S(=O)(=O)c2ccc(Br)cc2O[C@@H]1CN(C)C(=O)c1ccccn1,inactive: -18.3%,–
N#C/C(=C(/O)COC(=O)Cc1c[nH]c2ccccc12)c1nc2ccccc2[nH]1,inactive: -7.62%,–
O=C1C=C(Nc2ccccc2)c2ccccc2C1=O,–,active: 12.6 µM
C=CC[C@H](CC(=O)NCCO)C(=O)N[C@H](C)COC(=O)[C@@H](CC=C)Cc1ccc(F)cc1,inactive: -31.8%,–
CC(=O)OCCn1c2nc(=O)[nH]c(=O)c-2nc2cc(C)c(C)cc21,–,active: 28.2 µM
CCCCCC(=O)N1C[C@@H](O)[C@H](n2cc(-c3ccc(F)cc3)nn2)C[C@@H]1c1ccc(OC)cc1,inactive: -13.1%,–
CCOc1ccc(Cn2c3ccc(OC)cc3c3nc4ccccc4nc32)cc1OC,inactive: 35.7%,–
C=CC[C@@H](CC(=O)N[C@@H](CO)Cc1ccccc1)C(=O)N[C@H](COC(=O)[C@H](CC=C)CC(=O)OC(C)(C)C)Cc1c[nH]c2ccccc12,inactive: -24.5%,–
C=CCC[C@@H](Cc1ccc(F)cc1)C(=O)OC[C@H]1CCCN1C(=O)[C@@H](CC=C)CC(=O)N[C@H](CO)Cc1ccccc1,inactive: -18%,–
C[C@]12C(=O)N(c3ccc(Br)cc3)C(=O)N1[C@H]1c3ccccc3OC[C@@H]1[C@H]2c1ccccc1,inactive: -19.8%,–
CCOC(=O)c1c(NC(=O)c2ccc(S(=O)(=O)N(C)C3CCCCC3)cc2)sc2c1CCN(C(C)C)C2,inactive: 68.2%,–
COc1cc(/C=C2/SC(=S)N(CC(=O)Nc3cccnc3)C2=O)cc(OC)c1OC,inactive: -23.3%,–
COc1cc(N(C(C)=O)c2ccc(O)c(C(=O)O)c2)c2ncccc2c1,–,active: 31.6 µM
COc1ccc(NC(=O)c2sc3nc(-c4ccc(OC)cc4)cc(C(F)(F)F)c3c2N)cc1,inactive: -14.6%,–
Cc1c(C)n(C)c2ccc(C(=O)NCCCN3CCCCC3C)cc12 (stereo unspecified),inactive: -4.9%,–
CC(C)(C)OC(=O)C[C@@H]1C/C=C\C[C@@H](CC(=O)N[C@H](CO)Cc2ccccc2)C(=O)NC[C@H](c2ccccc2)OC1=O,inactive: -22.2%,–
